# Positions of bridges follow the written chain, without caps; N, C: chain ends. Residues, ends and D or L forms follow the SMILES beside them. *: point of attachment. 6FAM = O=C1OC2(c3ccc(O)cc3Oc3cc(O)ccc32)c2cc(C(=O)*)ccc21; X1 = NC(=O)COCC(=O)NCCOCCOCCOCCN*
# System: laser-induced CNV lesions of the eye
# Experiment: Imaging of choroid neovascularization (CNV) in rat, fluorescence fundus imaging
# Details: Long Evans rat, i.v. 20 μg/kg, 1 hour post inducing CNV (day 0 post-laser), images taken immediately after administration; compared to the negative control (FIG. 1 vs FIG. 2)
smiles,measurement,value
"N=C(N)NCCC[C@@H]1NC(=O)[C@@H]2CSSC[C@H](NC(=O)[C@H](CC(=O)O)NC(=O)CNC1=O)C(=O)N[C@@H](Cc1ccccc1)C(=O)N[C@H](C(=O)NCCOCCOCCOCCNC(=O)COCC(N)=O)CSCC(=O)N[C@@H](CCCCNC(=O)c1ccc3c(c1)C1(OC3=O)c3ccc(O)cc3Oc3cc(O)ccc31)C(=O)N2 [Contrast agent H, disulfide [Cys^2-6] thioether cyclo[CH2CO-Lys(fluorescein)-Cys^2-Arg-Gly-Asp-Cys^6-Phe-Cys]-PEG-NH2] ({CH2CO}-K(6FAM)CRGDCFC-X1; disulfide 2-6; thioether N-8)",intensity of signal for the induced lesions of the eye,increased intensity of signal

# From US8236283B2, “Optical imaging” (GE Healthcare AS, priority 2005, dated 2012)
